For orientation: % Inhibition means the relative decrease from the control value, in per cent.

The structures appear in SMILES notation. Hit rate of the full screen: of about 150,000 compounds, about 540 (0.36%) showed an effect of 50% or more. Some of the results follow.

Here are results for 83 compounds from ChEMBL document CHEMBL4888484, “Replenishing the malaria drug discovery pipeline: Screening and hit evaluation of the MMV Hit Generation Library 1 (HGL1) against asexual blood stage Plasmodium falciparum ,using a nano luciferase reporter read-out” (2022).

In the test the test system is Plasmodium falciparum. Description: Primary screen in NF54 nanoGlo assay, in single point, at 2uM, 72h; a lower Z score goes with more inhibition. Particulars: timepoint 72 hour. The format is functional, Erythrocyte.
As for `Cn1ncc(Br)c1C(=O)N1CCc2ccccc2C1`, the “% Inhibition” value is listed as 35% and the Z score is -1.06.
Consider `Cc1sc(C(=O)NC[C@@H](C)O)cc1CS(C)(=O)=O`, for which the “% Inhibition” value was -15% and the Z score came out at 2.01.
Consider `O=C(N[C@@H]1COC2(CCCCC2)C1)c1ccc2c(c1)OCO2`, for which the “% Inhibition” value is recorded as -10% and the Z score is recorded as 0.93.
As to `O=C(CCc1cscn1)Nc1cc(CCc2ccccc2)n[nH]1`, the “% Inhibition” value was -12% and the Z score is 2.31.
In the same order, the values of `Cc1ccc(-c2nn(-c3ccccc3)cc2C(=O)N(C)Cc2nc3ccccc3c(=O)[nH]2)o1` are -4% and 0.5.
Take `O=S(=O)(Cc1ccccc1)NCCn1ccnc1-c1ncccn1`: the “% Inhibition” value is -14% and the Z score was 1.76.
In the same order, the values of `Cc1cccc(-c2noc(CCc3nc4ccccc4o3)n2)c1F` are 4% and -0.56.
For `CCOC(=O)Cn1nc2c(S(=O)(=O)N3CCCCCC3)cccn2c1=O` the same measures were 0% and 0.06.
Regarding `Cc1cccc(S(=O)(=O)Nc2cccc(CCc3nc4ccccc4n3C)c2)c1`, the “% Inhibition” value is listed as -8% and the Z score is 0.99.
On to `CC1(C)O[C@@H]2C[C@@](OCc3ccccc3C#N)(C(=O)NCC3CC3)CC(OCc3ccccc3F)[C@@H]2O1` (stereo partly specified), for which the “% Inhibition” value is listed as -6% and the Z score is given as 0.7.
In the same order, the values of `COCCN1C(=O)CC(CC(=O)N(CC2CCC2)CC2CCCO2)(c2ccccc2F)C1=O` (stereo unspecified) are -3% and 0.54.
For the compound `CCN(C)C(=O)c1cccc(Nc2c(Oc3ccccc3F)cnn(-c3ccc(C)cc3)c2=O)c1`, the “% Inhibition” value was -9% and the Z score turned out to be 1.14.
For the compound `Cc1nc(N(C)C)c(C#N)c(C)c1Br`, the “% Inhibition” value is listed as -9% and the Z score worked out at 1.79.
For `O=C(NCCN1C(=O)COC1=O)c1cncc(F)c1` the same measures were 7% and -0.97.
For `CN(Cc1ccccc1)C(=O)C[C@@H]1O[C@H](CNS(=O)(=O)c2ccccc2)[C@@H](O)[C@H]1O`, the “% Inhibition” value was found to be 3% and the Z score is on record as -0.55.
Consider `O=C(c1ccc2c(c1)OCO2)N1CC(N2C(=O)CNC2=O)C1`, for which the “% Inhibition” value is recorded as -9% and the Z score is 1.75.
As to `NC(=O)[C@]1(NC(=O)c2coc3cc(F)ccc23)CCOC1`, the “% Inhibition” value is reported as -13% and the Z score came to 2.1.
Consider `O=C1C[C@H](c2noc(-c3onc4c3CCCC4)n2)CN1C1CC1`, for which the “% Inhibition” value is given as 1% and the Z score is given as -0.13.
Regarding `CN(C)C(=O)N1CCC2(CC1)CC(=O)N(Cc1ccc(F)c(F)c1)C2`, the “% Inhibition” value is on record as 2% and the Z score is given as -0.42.
Take `Cn1cc(CCN2CCC3(CCC(=O)N(CCc4ccncc4)C3)CC2)cn1`: the “% Inhibition” value was found to be 1% and the Z score is listed as -0.09.
For `CO[C@@]12CC[C@@H](O)C[C@@H]1N(C(=O)CCOc1ccccc1C)CC2` the same measures were -24% and 2.41.
In the same order, the values of `Cc1ncsc1C(=O)NC[C@H](O)C(=O)OCc1ccccc1` are -10% and 0.92.
On to `O=C(CCc1nnc2ccc(N3CCCCC3)nn12)Nc1ccccn1`, for which the “% Inhibition” value is listed as -12% and the Z score worked out at 2.05.
For `COc1nc2c(cc1CN(C)[C@@H](C)c1ccc3c(c1)OCCO3)C(=O)N(C(C)C)C2` the same measures were -7% and 0.95.
For `Fc1ccccc1N1CCN(Cc2cccn2-c2nnc(N3CCN(C4CCCCC4)CC3)s2)CC1`, the “% Inhibition” value is reported as 7% and the Z score was -0.66.
On to `O=C(Nc1cc2n(n1)CCNC2)C1NCCC2CCCCC21` (stereo unspecified), for which the “% Inhibition” value is -2% and the Z score is recorded as 0.39.
Turning to `O=C(c1cc2nccc(-c3ccc(F)cc3)n2n1)N1CCCCCC1`, the “% Inhibition” value is on record as -1% and the Z score was 0.16.
In the case of `CCCOC[C@H]1CCN(c2nc(-c3ccncc3)nc3c2CNC3)C1`, the “% Inhibition” value came to 2% and the Z score is recorded as -0.28.
`CC1CCN(C(=O)CCc2ccco2)CC1`: the “% Inhibition” value is on record as -15% and the Z score is 1.71.
For `Cc1ncc(NC(=O)[C@H]2CCc3nncn3C2)cn1` the same measures were -5% and 0.75.
On to `CN1CC[C@@H](c2nc(CCc3ccc(OC(F)F)cc3)no2)S1(=O)=O`, for which the “% Inhibition” value is listed as -2% and the Z score turned out to be 0.29.
For `COc1cncc(O[C@H]2CCCN(C(=O)c3c(C)nn(C)c3C)C2)n1`, the “% Inhibition” value is listed as -8% and the Z score came to 1.4.
In the same order, the values of `CCN(CC)S(=O)(=O)c1ccc(NC(=O)C(C)C)cc1` are 0% and 0.05.
For the compound `COc1ccc(CNCc2cc(C(C)C)no2)cc1OC[C@@H](O)CN1CCCCC1`, the “% Inhibition” value was 5% and the Z score is listed as -0.72.
In the same order, the values of `CC1CN(C(=O)[C@H]2CCCCC2(F)F)C1` are -5% and 0.98.
Take `CC(C)c1ccc(Oc2cnn(C)c(=O)c2Nc2ccc(C(=O)N(C)Cc3ccccc3)cc2)cc1`: the “% Inhibition” value is given as -5% and the Z score is given as 0.64.
Turning to `Nc1nc(NCCCn2ccnn2)cc(C2CC(O)C2)n1` (stereo unspecified), the “% Inhibition” value is recorded as 1% and the Z score is on record as -0.13.
Regarding `Cc1ccc2c(c1C)NC(=O)[C@]21N2CCC[C@H]2[C@@H](C(=O)c2ccccc2Cl)[C@]12C(=O)Nc1ccccc12`, the “% Inhibition” value is on record as 7% and the Z score was -0.9.
With `CCCn1cnnc1CNc1nc2ccccc2o1`, the “% Inhibition” value was -11% and the Z score is listed as 1.35.
As to `COC[C@H](Nc1ccncc1Cl)c1ccc(C)o1`, the “% Inhibition” value was -3% and the Z score is reported as 0.44.
Take `O=C(NCCc1ccco1)N(Cc1cccnc1)C1CCCCC1`: the “% Inhibition” value was -4% and the Z score is listed as 0.56.
In the same order, the values of `COCCS(=O)(=O)N1CCCC[C@H]1c1nc(-c2ccccc2)c[nH]1` are -11% and 1.16.
For `CCOCC(=O)NC1CCCC(O)C1` (stereo unspecified) the same measures were -8% and 1.58.
In the case of `NC(=O)CCn1cnc2c(c1=O)CCC2`, the “% Inhibition” value was -7% and the Z score is reported as 1.08.
For `CCN1CC[C@H](NC2CCN(c3ccc(Cl)cc3)CC2)C1` the same measures were -13% and 2.18.
For `Cc1nc(CCNC(=O)CN(C)[C@H]2CCS(=O)(=O)C2)nc2c1CCC2`, the “% Inhibition” value was 0% and the Z score is on record as -0.02.
For `Cc1cc(S(=O)(=O)N(C)[C@@]2(C#N)CCOC2)sc1C` the same measures were 10% and -1.89.
For `O=C(Nc1ccc(Br)cc1Br)C1(F)C(F)(F)C(F)(F)C(F)(F)C(F)(F)C1(F)F`, the “% Inhibition” value was determined as 2% and the Z score was -0.25.
As for `CC1(C)NC(=O)N(CCCn2cnc(C#N)c2C#N)C1=O`, the “% Inhibition” value is 0% and the Z score was 0.
As for `O=C(Cn1ccc2ccc(N3CCCCCC3)nc21)NC1CCCC1`, the “% Inhibition” value was -8% and the Z score is listed as 1.1.
Turning to `CC[C@@](NC(=O)c1csc(C(C)C)n1)(C(N)=O)C(C)C`, the “% Inhibition” value was -16% and the Z score turned out to be 1.42.
For `CCOC(=O)CCN(C)C(=O)CCC1CN(C(=O)OC(C)(C)C)C1` the same measures were -11% and 1.45.
Consider `COc1ccccc1-c1cnc(CN[C@H]2CCc3ccccc3OC2)o1`, for which the “% Inhibition” value is reported as -6% and the Z score amounted to 0.75.
`N#Cc1cccc(C(=O)OC2(C3CC3)CC2)c1`: the “% Inhibition” value was -10% and the Z score stood at 1.09.
Take `Cc1nn(CCC#N)c(C)c1[C@@H]1C=C[C@@H](NC(=O)Nc2ccc(Cl)cc2)C1`: the “% Inhibition” value is on record as 34% and the Z score is -3.86.
As for `Cc1cccc(CC(=O)N[C@@H](Cn2nccn2)c2ccccc2)c1`, the “% Inhibition” value was -8% and the Z score is recorded as 1.19.
`CCCCn1ncnc1-c1ccc2c(c1)nc(N1CC[C@H](O)C1)n2C`: the “% Inhibition” value is -2% and the Z score amounted to 0.32.
`CNC(=O)c1nc[nH]c1-n1nc(C(C)(C)C)cc1C(F)(F)F`: the “% Inhibition” value was -3% and the Z score came to 0.49.
For the compound `Cc1nnc(N(C)Cc2ccc3c(c2)OCO3)c(C#N)c1C`, the “% Inhibition” value was -11% and the Z score is 2.16.
With `Cc1nc2c(c(=O)n1C)CN(C(=O)c1ccccc1Oc1ccccc1)C2`, the “% Inhibition” value is -9% and the Z score was 1.76.
Regarding `NC(Cc1ccccc1)=NO[C@H]1CCN(C2CC2)C1=O`, the “% Inhibition” value is -5% and the Z score amounted to 0.83.
For `COc1cccc2c1nc(NC(=O)COC1CCN(C)CC1)n2C`, the “% Inhibition” value was -9% and the Z score is on record as 1.21.
In the same order, the values of `CN(CCc1ccccn1)C(=O)[C@H]1CCN(c2ccccc2Cl)C1` are -12% and 2.41.
`Cc1ccc(-n2nc(C(=O)O)c(/C=C/c3ccc(Cl)cc3Cl)c(C#N)c2=O)cc1C`: the “% Inhibition” value is recorded as 7% and the Z score is listed as -1.29.
On to `Cc1cc(Cl)cc2c1NC(=O)C21NC(C(C)O)[C@H]2C(=O)N(CCc3ccccc3)C(=O)[C@H]21` (stereo partly specified), for which the “% Inhibition” value is -11% and the Z score worked out at 1.42.
As for `Cc1cc(C)cc(CN2CCN(C(=O)[C@H](C)n3cccn3)CC2=O)c1`, the “% Inhibition” value came to 1% and the Z score is listed as -0.14.
On to `C[C@H](Oc1ccccc1)c1n[nH]c2c1CN(Cc1cccc3nonc13)CC2`, for which the “% Inhibition” value was -12% and the Z score is on record as 1.78.
As to `CC(C)c1cc(N2CCC3(CC2)CN[C@H](C(=O)O)C3)nc(C(F)(F)F)n1`, the “% Inhibition” value is -7% and the Z score is given as 0.78.
Take `CC(C)c1noc(CN(C)CC(=O)N2CCCC2)n1`: the “% Inhibition” value was -15% and the Z score turned out to be 1.83.
As to `Cc1ccc(C(=O)N2CCn3cccc3[C@H]2c2ccc(N(C)C)cc2)cc1C(F)(F)F`, the “% Inhibition” value is listed as 9% and the Z score is given as -1.69.
`Cc1cc(NC(=O)c2ccc(-c3ccccc3C(F)(F)F)o2)no1`: the “% Inhibition” value is recorded as -12% and the Z score is given as 1.4.
Turning to `CC(C)(C)[C@H](CO)NC(=O)Nc1ccccc1C(F)(F)F`, the “% Inhibition” value is given as -8% and the Z score was 1.54.
As to `CCC(=O)Nc1cc(-c2ccccc2)ns1`, the “% Inhibition” value was -12% and the Z score worked out at 1.83.
Regarding `Cc1cn(C[C@H](O)CN2CCOCC2)c(=O)n1-c1ccccc1`, the “% Inhibition” value is on record as -3% and the Z score was found to be 0.31.
For `Cc1noc([C@@H]2CCCN2C(=O)c2nc3c(s2)CCCC3)n1` the same measures were -9% and 1.06.
Regarding `CCCOCc1nc([C@H]2CCO[C@@H]2C(C)(C)C)no1`, the “% Inhibition” value was -1% and the Z score was determined as 0.15.
For `O=C(O)CN1C(=O)COc2ccc(S(=O)(=O)Nc3cccc(-c4nc5ccccc5s4)c3)cc21`, the “% Inhibition” value is given as -12% and the Z score is 2.22.
Regarding `O=C(O)C[C@H](NC(=O)C1CCc2ncncc2C1)c1ccc2ccccc2c1` (stereo partly specified), the “% Inhibition” value was 27% and the Z score is on record as -3.
For `O=C(c1ccc(N2CCCC2)nc1)N1CC(S(=O)(=O)N2CCOCC2)C1`, the “% Inhibition” value was -21% and the Z score was determined as 1.9.
Take `CCN(CC(=O)NCc1cccs1)C(=O)C[C@H](NC(C)=O)c1ccccc1`: the “% Inhibition” value is recorded as -12% and the Z score was determined as 1.69.
As for `OC1CCCN(Cc2ccc3cn[nH]c3c2)C1CCc1ccccc1` (stereo unspecified), the “% Inhibition” value is -12% and the Z score was 1.96.
Regarding `CN1CCN(C2(CNc3ccnc4ccccc34)CCCC2)CC1`, the “% Inhibition” value is on record as 99% and the Z score is recorded as -9.07.
For `CCc1ccc([C@@H]2C[C@H](c3cccc(Cl)c3)n3nc(N)nc3N2)cc1`, the “% Inhibition” value is given as -17% and the Z score is 2.14.
